Test results: a compilation of properties of binary mixtures (doi:10.1021/acs.jced.9b00769)
The densities may have been worked out from excess volumes.

Assay: xn = mol fraction of the nth substance listed
Details: 100 kPa

OCCN(CCO)CCO + CCCCCCCCCCCC[P+](CC)(CC)CC.N#Cc1ccc[n-]1
x2 = 0
Details | mass density [kg/m3]
293.15 K | 1123
298.15 K | 1120
303.15 K | 1117
313.15 K | 1111

OCCN(CCO)CCO + CCCCCCCCCCCC[P+](CCCC)(CCCC)CCCC.N#Cc1ccc[n-]1
x2 = 0
Details | mass density [kg/m3]
293.15 K | 1123
303.15 K | 1117
313.15 K | 1111

OCCN(CCO)CCO + CCCC[P+](CC)(CC)CC.N#Cc1ccc[n-]1
x2 = 0
Details | mass density [kg/m3]
293.15 K | 1123
298.15 K | 1120
303.15 K | 1117
313.15 K | 1111

CCCCCCCCCCCC[P+](CC)(CC)CC.N#Cc1ccc[n-]1 + OCCN(CCO)CCO
mass density [kg/m3]
Details | 293.15 K | 298.15 K | 303.15 K | 313.15 K
x1 = 0.005 | 1121 | 1118 | 1115 | –
x1 = 0.02 | 1112 | 1110 | 1107 | 1101
x1 = 0.042 | 1101 | 1098 | 1096 | –
x1 = 0.065 | 1091 | 1088 | – | –
x1 = 0.09 | 1080 | 1077 | – | 1069
x1 = 0.116 | 1070 | 1067 | – | –
x1 = 0.218 | 1039 | 1036 | 1034 | 1028
x1 = 0.299 | 1019 | 1016 | 1013 | 1008
x1 = 0.501 | 984 | – | 979 | –
x1 = 0.686 | – | 962 | 959 | 953
x1 = 0.809 | 954 | – | 948 | –
x1 = 1 | 948 | 945 | 942 | 936

CCCCCCCCCCCC[P+](CCCC)(CCCC)CCCC.N#Cc1ccc[n-]1 + OCCN(CCO)CCO
mass density [kg/m3]
Details | 293.15 K | 303.15 K | 313.15 K | 323.15 K
x1 = 0.004 | 1121 | 1116 | 1110 | 1104
x1 = 0.007 | 1119 | 1113 | 1108 | 1102
x1 = 0.01 | 1116 | 1111 | 1105 | 1100
x1 = 0.014 | 1114 | – | 1103 | 1097
x1 = 0.027 | 1105 | 1099 | – | 1088
x1 = 0.035 | – | 1094 | 1089 | 1083
x1 = 0.042 | 1095 | 1089 | – | 1078
x1 = 0.054 | 1087 | – | 1076 | –
x1 = 0.065 | 1081 | – | 1070 | –
x1 = 0.075 | 1075 | 1069 | – | 1058
x1 = 0.096 | – | 1059 | – | 1047
x1 = 0.121 | – | 1046 | 1041 | 1035
x1 = 0.177 | 1031 | 1025 | 1019 | 1013
x1 = 0.244 | 1010 | 1005 | 999 | 993
x1 = 0.324 | – | 986 | 980 | 974
x1 = 0.43 | 971 | 966 | 960 | 954
x1 = 0.538 | – | 951 | 945 | 939
x1 = 1 | – | – | 906 | 900

CCCC[P+](CC)(CC)CC.N#Cc1ccc[n-]1 + OCCN(CCO)CCO
mass density [kg/m3]
Details | x1 = 0.028 | x1 = 0.059 | x1 = 0.089 | x1 = 0.123 | x1 = 0.272 | x1 = 0.537 | x1 = 0.763 | x1 = 1
293.15 K | 1117 | 1109 | 1102 | 1096 | 1072 | 1033 | 1011 | 991
298.15 K | 1114 | 1106 | 1100 | 1093 | 1068 | 1030 | 1007 | 988
303.15 K | 1111 | 1103 | 1097 | – | 1065 | 1027 | 1004 | 985
313.15 K | 1106 | 1098 | 1091 | 1082 | 1059 | 1022 | 998 | 980
